Measured values taken from patent US20250145722A1 (TRUEBINDING, published 2025).

T1: recombinant human VEGFR3 (R&D Systems, 349-F4) (human, UniProt P35916 25-776)
T1 sequence (looked up): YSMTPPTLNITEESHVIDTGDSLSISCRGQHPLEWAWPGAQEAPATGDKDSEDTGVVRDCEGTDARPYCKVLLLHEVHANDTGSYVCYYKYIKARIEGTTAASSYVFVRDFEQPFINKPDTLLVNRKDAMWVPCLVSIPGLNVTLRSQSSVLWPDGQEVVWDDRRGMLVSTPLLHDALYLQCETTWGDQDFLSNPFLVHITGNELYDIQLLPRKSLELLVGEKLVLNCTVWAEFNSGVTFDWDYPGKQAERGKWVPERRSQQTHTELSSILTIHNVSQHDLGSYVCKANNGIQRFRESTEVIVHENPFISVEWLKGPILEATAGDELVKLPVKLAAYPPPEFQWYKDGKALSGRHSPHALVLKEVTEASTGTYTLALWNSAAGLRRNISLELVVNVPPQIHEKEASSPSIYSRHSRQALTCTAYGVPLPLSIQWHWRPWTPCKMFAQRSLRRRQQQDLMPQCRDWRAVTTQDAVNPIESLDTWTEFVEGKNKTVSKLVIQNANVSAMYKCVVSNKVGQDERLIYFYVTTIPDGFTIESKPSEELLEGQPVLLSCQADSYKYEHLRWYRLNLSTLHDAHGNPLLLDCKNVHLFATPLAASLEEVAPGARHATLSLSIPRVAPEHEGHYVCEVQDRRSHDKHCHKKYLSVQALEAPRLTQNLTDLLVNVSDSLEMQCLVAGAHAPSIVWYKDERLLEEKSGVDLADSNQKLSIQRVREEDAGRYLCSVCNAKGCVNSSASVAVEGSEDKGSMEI

T2: recombinant human TGF-beta RIII (R&D Systems, 242-R3-100) (human, UniProt Q03167 21-781)
T2 construct: also called TGFβ R3; TGFBR3
T2 sequence (looked up): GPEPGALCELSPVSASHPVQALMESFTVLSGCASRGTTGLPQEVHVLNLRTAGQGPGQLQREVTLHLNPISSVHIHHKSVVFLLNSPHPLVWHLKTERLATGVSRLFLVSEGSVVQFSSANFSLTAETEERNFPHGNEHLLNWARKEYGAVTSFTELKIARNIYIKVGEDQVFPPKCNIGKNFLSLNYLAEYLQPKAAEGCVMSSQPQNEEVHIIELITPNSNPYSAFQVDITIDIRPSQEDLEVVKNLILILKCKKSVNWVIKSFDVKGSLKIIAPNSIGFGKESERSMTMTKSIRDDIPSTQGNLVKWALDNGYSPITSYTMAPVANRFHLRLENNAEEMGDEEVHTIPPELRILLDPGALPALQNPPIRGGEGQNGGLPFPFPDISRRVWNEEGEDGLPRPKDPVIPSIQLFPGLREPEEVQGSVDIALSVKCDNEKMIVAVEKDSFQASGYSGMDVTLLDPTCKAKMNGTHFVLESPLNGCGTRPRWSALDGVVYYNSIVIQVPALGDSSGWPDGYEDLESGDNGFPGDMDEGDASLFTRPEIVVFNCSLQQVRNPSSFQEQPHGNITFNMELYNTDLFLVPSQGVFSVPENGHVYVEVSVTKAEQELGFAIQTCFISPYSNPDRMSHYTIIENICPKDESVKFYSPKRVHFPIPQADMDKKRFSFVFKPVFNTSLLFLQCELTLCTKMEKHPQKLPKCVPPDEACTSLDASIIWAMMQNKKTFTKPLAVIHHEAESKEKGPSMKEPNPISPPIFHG

B1: human Galectin-3 (Gal3), full-length recombinant (ligand)
chain: not shown
notes: treated here as one molecule; also called hGAL3; hGal3
B2: recombinant human CTLA4 (R&D Systems, 7268-CT) (receptor)
chain: not shown
notes: Detected with anti-human IgG; also called hCTLA4
B3: recombinant human PDL1 (R&D Systems 156-B7) (ligand)
chain: not shown
notes: Detected with anti-human IgG; also called hPDL1

How the values were obtained:
[1] = biological target: T1, recombinant human VEGFR3 (R&D Systems, …); assay: Gator biosensor kinetics (text: SPR), rhVEGFR3/hFc captured on hFc probes, rhGal3-His as analyte, 1:1 fit
[2] = biological target: T3, recombinant human PDGFRb (R&D Systems, 385-PR/CF) (human, UniProt P09619 33-530); assay: Gator biosensor kinetics (text: SPR), rhPDGFRβ/hFc captured on hFc probes, rhGal3-His as analyte, 1:1 fit
T3 construct: also called PDGF R beta; PDGFR beta

[3] = biological target: T4, human Toll-like Receptor 4 (PeproTech, 160-06) (human, UniProt O00206 partial chain); assay: ELISA: Gal3 coated, biotinylated TLR4 detected with avidin-HRP; concentrations of the bars not printed on the sheet
T4 construct: Biotinylated; also called TLR4

Abeta (1-42) oligomer = biological target: T5, Abeta (1-42) oligomer (human); assay: ELISA: Gal3 coated, biotinylated Abeta (1-42) oligomer detected with avidin-HRP; concentrations of the bars not printed on the sheet
T5 construct: also called Aβ42 oligomer; Abeta oligomer

[4] = biological target: T6, recombinant human HGFR (cMet) (R&D Systems, 8614-MT) (human, UniProt P08581 25-932); assay: ELISA: Gal3 coated at 2 or 3 µg/ml, protein at 2 or 3 µg/ml, anti-human IgG-HRP, A450
T6 construct: Detected with anti-human IgG

[5] = biological target: recombinant human VEGFR2 (R&D Systems, 357-KD/CF) (human, UniProt P35968 20-764); assay: Gator biosensor kinetics (text: SPR), rhVEGFR2/hFc captured on hFc probes, rhGal3-His as analyte, 1:1 fit
[6] = biological target: T2, recombinant human TGF-beta RIII (R&D …); assay: ELISA: Gal3 coated at 3 µg/ml, receptor at 3 µg/ml, anti-human IgG-HRP, A450
[7] = biological target: T7, recombinant human Her2 (R&D Systems, 1129-ER) (human, UniProt P04626 partial chain); assay: Gator biosensor kinetics (text: SPR), rhErbB2/hFc captured on hFc probes, rhGal3-His as analyte, 1:1 fit
T7 construct: also called ErbB2

[8] = biological target: recombinant human EGFR (R&D Systems, 344-ER) (human, UniProt P00533 partial chain); assay: Gator biosensor kinetics (text: SPR), rhEGFR/hFc captured on hFc probes, rhGal3-His as analyte, 1:1 fit
Abeta (1-42) peptide = biological target: T8, Abeta (1-42) peptide (human); assay: ELISA: Gal3 coated, biotinylated Abeta (1-42) peptide detected with avidin-HRP; concentrations of the bars not printed on the sheet
T8 construct: also called Aβ42 peptide; Aβ-42 peptide

[9] = biological target: T9, recombinant human PDGFRa (R&D Systems, 6765-PR) (human, UniProt P16234 24-524); assay: Gator biosensor kinetics (text: SPR), rhPDGFRα/hFc captured on hFc probes, rhGal3-His as analyte, 1:1 fit
T9 construct: also called PDGF R alpha; PDGFR alpha

[10] = biological target: T10, recombinant human VEGFR1 (R&D Systems, 321-FL/CF) (human, UniProt P17948-2 27-687, limits assumed); assay: ELISA: Gal3 coated at 2 or 3 µg/ml, receptor at 2 or 3 µg/ml, anti-human IgG-HRP, A450
T10 construct: Detected with anti-human IgG

[11] = biological target: T11, recombinant human FGFR4 (R&D Systems, 685-FR) (human, UniProt P22455 22-369); assay: as above
T11 construct: Detected with anti-human IgG; also called hFGFR4

[12] = biological target: B1; assay: ELISA: Gal3 coated at 2 or 3 µg/ml, protein at 2 or 3 µg/ml, anti-human IgG-HRP, A450

Sequence of UniProt P35968 (P35968 20-764 limits assumed): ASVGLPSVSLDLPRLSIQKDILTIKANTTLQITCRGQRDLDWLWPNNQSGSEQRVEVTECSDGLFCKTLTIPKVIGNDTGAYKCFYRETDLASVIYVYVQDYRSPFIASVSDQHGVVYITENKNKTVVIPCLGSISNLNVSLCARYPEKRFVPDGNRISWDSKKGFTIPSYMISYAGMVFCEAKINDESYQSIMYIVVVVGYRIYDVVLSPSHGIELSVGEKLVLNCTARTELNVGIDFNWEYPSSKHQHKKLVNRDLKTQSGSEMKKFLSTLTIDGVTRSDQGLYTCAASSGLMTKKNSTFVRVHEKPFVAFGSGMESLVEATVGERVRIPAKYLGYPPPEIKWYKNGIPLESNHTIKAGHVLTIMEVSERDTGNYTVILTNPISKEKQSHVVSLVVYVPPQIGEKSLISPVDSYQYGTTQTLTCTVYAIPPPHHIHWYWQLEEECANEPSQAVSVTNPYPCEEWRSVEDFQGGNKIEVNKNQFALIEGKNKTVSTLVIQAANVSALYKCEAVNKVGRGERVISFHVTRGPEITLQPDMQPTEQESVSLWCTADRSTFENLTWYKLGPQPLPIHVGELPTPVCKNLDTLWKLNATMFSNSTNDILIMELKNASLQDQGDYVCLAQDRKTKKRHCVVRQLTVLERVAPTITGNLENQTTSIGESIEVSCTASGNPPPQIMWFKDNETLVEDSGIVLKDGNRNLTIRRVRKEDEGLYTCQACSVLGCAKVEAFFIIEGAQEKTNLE
T9 sequence (P16234 24-524 limits assumed): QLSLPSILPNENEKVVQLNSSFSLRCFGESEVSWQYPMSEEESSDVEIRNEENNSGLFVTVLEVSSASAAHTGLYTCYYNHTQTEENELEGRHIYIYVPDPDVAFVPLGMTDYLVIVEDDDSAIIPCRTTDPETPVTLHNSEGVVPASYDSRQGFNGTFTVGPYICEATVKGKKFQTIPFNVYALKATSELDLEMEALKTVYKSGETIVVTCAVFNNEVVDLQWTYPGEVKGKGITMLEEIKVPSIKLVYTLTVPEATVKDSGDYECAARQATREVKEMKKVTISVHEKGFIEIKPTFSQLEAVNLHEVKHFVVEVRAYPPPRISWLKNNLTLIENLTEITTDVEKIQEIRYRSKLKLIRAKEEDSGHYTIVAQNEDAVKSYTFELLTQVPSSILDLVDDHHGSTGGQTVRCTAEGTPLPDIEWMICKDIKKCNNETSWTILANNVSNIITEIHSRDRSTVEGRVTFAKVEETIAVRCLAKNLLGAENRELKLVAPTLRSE
T3 sequence (P09619 33-530 limits assumed): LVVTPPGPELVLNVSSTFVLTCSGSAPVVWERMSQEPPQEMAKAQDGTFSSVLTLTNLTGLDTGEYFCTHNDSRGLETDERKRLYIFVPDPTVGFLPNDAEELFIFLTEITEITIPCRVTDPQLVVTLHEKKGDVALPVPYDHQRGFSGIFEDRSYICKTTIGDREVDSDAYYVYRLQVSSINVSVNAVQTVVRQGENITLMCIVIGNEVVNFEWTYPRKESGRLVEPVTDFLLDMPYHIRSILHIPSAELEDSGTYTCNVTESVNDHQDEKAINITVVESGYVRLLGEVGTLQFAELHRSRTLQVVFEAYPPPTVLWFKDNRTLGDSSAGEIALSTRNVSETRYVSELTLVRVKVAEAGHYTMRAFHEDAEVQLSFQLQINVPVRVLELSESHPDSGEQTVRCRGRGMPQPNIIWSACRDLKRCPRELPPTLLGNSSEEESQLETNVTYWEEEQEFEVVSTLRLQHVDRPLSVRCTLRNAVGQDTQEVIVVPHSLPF

## B1
[1]
  Kd: 3.37 µM
  koff: 0.0452 s⁻¹
  kon: 13400 M⁻¹ s⁻¹
[2]
  Kd: 832 µM
  koff: 0.0794 s⁻¹
[3]
  binding result: binds
Abeta (1-42) oligomer
  binding result: binds
[4]
  binding result: binds
[5]
  Kd: 287 µM
  koff: 0.0508 s⁻¹
  kon: 177 M⁻¹ s⁻¹
[6]
  binding result: no binding
[7]
  Kd: 3030 µM
  koff: 0.125 s⁻¹
[8]
  Kd: 958 µM
  koff: 0.0886 s⁻¹
Abeta (1-42) peptide
  binding result: binds
[9]
  Kd: 936 µM
  koff: 0.111 s⁻¹
  kon: 119 M⁻¹ s⁻¹
[10]
  binding result: no binding
[11]
  binding result: binds

## B2
[12]
  binding result: binds

## B3
[12]
  binding result: binds
